The supplement of paper PMC4604168 (melanoma cell lines)
This is one part of the list. Many values rest on one well or one pass, so single values are uncertain.

Key:
Assay in all cases: cell count relative to DMSO control; melanoma cells; higher = more viable cells
Conditions in all cases: library dose: standard library concentration; 72 h
SkMel28 = tested on: SkMel28
SkMel2 = tested on: SkMel2
SkMel30 = tested on: SkMel30
SkMel5 = tested on: SkMel5
UACC257 = tested on: UACC257
UACC62 = tested on: UACC62
WM115 = tested on: WM115
WM1716 = tested on: WM1716
WM1745 = tested on: WM1745
WM3526 = tested on: WM3526
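Also: cells treated in 1,536-well plates, then fixed and DAPI-stained, with nuclei counted from automated high-throughput microscope images.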

SMILES | cell count (SkMel28) | cell count (SkMel2) | cell count (SkMel30) | cell count (SkMel5) | cell count (UACC257) | cell count (UACC62) | cell count (WM115) | cell count (WM1716) | cell count (WM1745) | cell count (WM3526)
Cc1ccc(Nc2nccc(N(C)c3ccc4c(C)n(C)nc4c3)n2)cc1S(N)(=O)=O [Pazopanib] + Cn1c(Nc2ccc(C(F)(F)F)cc2)nc2cc(Oc3ccnc(-c4ncc(C(F)(F)F)[nH]4)c3)ccc21 [CHIR265] (first compound 2 µM, partner dose 0.4 µM) | 28.3% | 62.3% | 63.5% | 42.1% | 88% | 36.4% | 40.6% | 63% | 54.1% | 52.7%
O=C(/C=C/c1cccnc1)NCCCCC1CCN(C(=O)c2ccccc2)CC1 + CS(=O)(=O)c1ccc(C(=O)Nc2ccc(Cl)c(-c3ccccn3)c2)c(Cl)c1 [vismodegib] (first compound 0.05 µM, partner dose 5 µM) | 113% | 13% | 103% | 81.9% | 109% | 66.9% | 82.5% | 69.1% | 91.7% | 85.6%
Cc1ccc(Nc2nccc(N(C)c3ccc4c(C)n(C)nc4c3)n2)cc1S(N)(=O)=O [Pazopanib] + Clc1ccc(Nc2nnc(Cc3ccncc3)c3ccccc23)cc1 [vatalanib] (first compound 2 µM, partner dose 10 µM) | 85.2% | 81% | 67.1% | 62.2% | 69.9% | 61.7% | 86.5% | 76.3% | 77.4% | 72.9%
Cc1ccc(Nc2nccc(N(C)c3ccc4c(C)n(C)nc4c3)n2)cc1S(N)(=O)=O [Pazopanib] + COc1cc2c(Oc3ccc4[nH]c(C)cc4c3F)ncnc2cc1OCCCN1CCCC1 [cediranib] (first compound 2 µM, partner dose 2 µM) | 107% | 87.1% | 83.9% | 80.8% | 103% | 78.5% | 86.3% | 96% | 109% | 86%
Cc1ccc(Nc2nccc(N(C)c3ccc4c(C)n(C)nc4c3)n2)cc1S(N)(=O)=O [Pazopanib] + O=C(CCCCCCC(=O)Nc1ccccc1)NO [vorinostat] (first compound 2 µM, partner dose 0.4 µM) | 44.6% | 69% | 77.4% | 65.8% | 73.9% | 60.3% | 64.3% | 81.6% | 71.8% | 77.7%
Cc1ccc(Nc2nccc(N(C)c3ccc4c(C)n(C)nc4c3)n2)cc1S(N)(=O)=O [Pazopanib] + C[C@]1(O)C[C@@H](c2nc(-c3ccc4ccc(-c5ccccc5)nc4c3)c3c(N)nccn32)C1 [OSI906] (first compound 2 µM, partner dose 2 µM) | 65.5% | 93% | 69.7% | 64.5% | 83% | 87.8% | 93% | 82.8% | 67.7% | 69.6%
CC1(C)CCC(c2ccc(Cl)cc2)=C(CN2CCN(c3ccc(C(=O)NS(=O)(=O)c4ccc(N[C@H](CCN5CCOCC5)CSc5ccccc5)c(S(=O)(=O)C(F)(F)F)c4)cc3)CC2)C1 + COc1ccc(C2=N[C@@H](c3ccc(Cl)cc3)[C@@H](c3ccc(Cl)cc3)N2C(=O)N2CCNC(=O)C2)c(OC(C)C)c1 [Nutlin-3] (first compound 2 µM, partner dose 0.5 µM) | 50.6% | 79.3% | 81.6% | 57.3% | 30.3% | 47% | 67.5% | 48.3% | 2.3% | 75.3%
Cc1ccc(Nc2nccc(N(C)c3ccc4c(C)n(C)nc4c3)n2)cc1S(N)(=O)=O [Pazopanib] + C[C@]1(c2nc3c(C(N)=O)cccc3[nH]2)CCCN1 [Veliparib] (first compound 2 µM, partner dose 7 µM) | 52.3% | 72.3% | 68.9% | 54.4% | 80.7% | 54.9% | 66.7% | 76.4% | 79.8% | 67.9%
Cc1ccc(Nc2nccc(N(C)c3ccc4c(C)n(C)nc4c3)n2)cc1S(N)(=O)=O [Pazopanib] + CNC(=O)c1cc(Oc2ccc(NC(=O)Nc3ccc(Cl)c(C(F)(F)F)c3)cc2)ccn1 [sorafenib] (first compound 2 µM, partner dose 2 µM) | 78% | 82.7% | 113% | 77.1% | 78% | 59.7% | 87% | 104% | 71.5% | 67.9%
CC1(C)CCC(c2ccc(Cl)cc2)=C(CN2CCN(c3ccc(C(=O)NS(=O)(=O)c4ccc(N[C@H](CCN5CCOCC5)CSc5ccccc5)c(S(=O)(=O)C(F)(F)F)c4)cc3)CC2)C1 + O=C(O)[C@@H]1[O][Sb](=[O])([O][Sb]2(=[O])[O][C@H]([C@H](O)CO)[C@H](O)[C@H](C(=O)O)[O]2)[O][C@H]([C@H](O)CO)[C@@H]1O [stibogluconate] (first compound 2 µM, partner dose 10 µM) | 72.1% | 78.2% | 43.7% | 81.5% | 40.9% | 74.6% | 88.8% | 69.5% | 4.28% | 74.2%
O=C(/C=C/c1cccnc1)NCCCCC1CCN(C(=O)c2ccccc2)CC1 + CC(C)(C)c1cnc(CSc2cnc(NC(=O)C3CCNCC3)s2)o1 [SNS-032] (first compound 0.05 µM, partner dose 0.05 µM) | 74.6% | 24.4% | 83.3% | 80.1% | 99.3% | 69.7% | 70.2% | 82.4% | 79.8% | 92.8%
O=C(/C=C/c1cccnc1)NCCCCC1CCN(C(=O)c2ccccc2)CC1 + CCCCCCCCc1ccc(CCC(N)(CO)CO)cc1 [fingolimod] (first compound 0.05 µM, partner dose 10 µM) | 1.49% | 0.224% | 8.17% | 35.1% | 61.3% | 9.53% | 11.9% | 18% | 3.2% | 17.9%
O=C(/C=C/c1cccnc1)NCCCCC1CCN(C(=O)c2ccccc2)CC1 + C[C@@H]1CCN(C(=O)CC#N)C[C@@H]1N(C)c1ncnc2[nH]ccc12 [CP690550] (first compound 0.05 µM, partner dose 5 µM) | 58.4% | 21.4% | 92% | 121% | 107% | 78% | 60.8% | 69.2% | 71.3% | 91.1%
CC1(C)CCC(c2ccc(Cl)cc2)=C(CN2CCN(c3ccc(C(=O)NS(=O)(=O)c4ccc(N[C@H](CCN5CCOCC5)CSc5ccccc5)c(S(=O)(=O)C(F)(F)F)c4)cc3)CC2)C1 + Cn1cnc2c(F)c(Nc3ccc(Br)cc3Cl)c(C(=O)NOCCO)cc21 [selumetinib] (first compound 2 µM, partner dose 0.075 µM) | 56.6% | 38.2% | 27.6% | 71.8% | 47.1% | 37.5% | 56.5% | 63.2% | 4.96% | 46.3%
Cc1ccc(Nc2nccc(N(C)c3ccc4c(C)n(C)nc4c3)n2)cc1S(N)(=O)=O [Pazopanib] + CCN(CC)CCNC(=O)c1c(C)[nH]c(/C=C2\C(=O)Nc3ccc(F)cc32)c1C [sunitinib] (first compound 2 µM, partner dose 2 µM) | 41.6% | 74.5% | 67.2% | 52% | 82.6% | 53.4% | 55.7% | 105% | 68.6% | 48.9%
CC1(C)CCC(c2ccc(Cl)cc2)=C(CN2CCN(c3ccc(C(=O)NS(=O)(=O)c4ccc(N[C@H](CCN5CCOCC5)CSc5ccccc5)c(S(=O)(=O)C(F)(F)F)c4)cc3)CC2)C1 + CC(C)C[C@H](NC(=O)[C@H](Cc1ccccc1)NC(=O)c1cnccn1)B(O)O [Bortezomib] (first compound 2 µM, partner dose 0.005 µM) | 14.1% | 23% | 9.44% | 25.1% | 44.1% | 42.5% | 9.89% | 11.2% | 6.34% | 11.6%
CC1(C)CCC(c2ccc(Cl)cc2)=C(CN2CCN(c3ccc(C(=O)NS(=O)(=O)c4ccc(N[C@H](CCN5CCOCC5)CSc5ccccc5)c(S(=O)(=O)C(F)(F)F)c4)cc3)CC2)C1 + NC1(c2ccc(-c3nc4ccn5c(=O)[nH]nc5c4cc3-c3ccccc3)cc2)CCC1 [MK2206] (first compound 2 µM, partner dose 2 µM) | 63.8% | 65.1% | 64.6% | 65.7% | 39.1% | 58.8% | 30.2% | 47% | 5.72% | 67.7%
Cc1ccc(Nc2nccc(N(C)c3ccc4c(C)n(C)nc4c3)n2)cc1S(N)(=O)=O [Pazopanib] + C[C@@H](N)c1ccc(C(=O)Nc2ccnc3[nH]ccc23)cc1 [RKI983] (first compound 2 µM, partner dose 2 µM) | 73.7% | 99.6% | 61.3% | 52.9% | 39.1% | 59.1% | 104% | 42.5% | 85.5% | 101%
Cc1ccc(Nc2nccc(N(C)c3ccc4c(C)n(C)nc4c3)n2)cc1S(N)(=O)=O [Pazopanib] + C=C(c1ccc(C(=O)O)cc1)c1cc2c(cc1C)C(C)(C)CCC2(C)C [Bexarotene] (first compound 2 µM, partner dose 10 µM) | 74.4% | 84% | 98.9% | 79.8% | 78.4% | 80.4% | 95.3% | 99.3% | 84.7% | 75.4%
O=C(/C=C/c1cccnc1)NCCCCC1CCN(C(=O)c2ccccc2)CC1 + Cn1nnc2c(C(N)=O)ncn2c1=O [temozolomide] (first compound 0.05 µM, partner dose 10 µM) | 39.5% | 9.23% | 95.6% | 103% | 126% | 51.2% | 78% | 62.8% | 102% | 111%
